PubChem BioAssay AID1963576 (National Center for Advancing Translational Sciences (NCATS), 2024)
The campaign covered roughly 46,000 compounds. About 60 (0.1%) were called active. About 3% were inconclusive and are not listed. The call rests on the fitted dose curve; in most records, active means well fitted inhibition curve with a large enough effect; inconclusive means small, poorly fitted or top-dose-only effect; inactive means no such curve, though single readings can be large or run the other way. Some of the results follow.

Assay: Primary qHTS assay for Inhibitors of ovarian cancer metastasis using an organotypic tumor microenvironment (TME) model. Further: nearly all actives have a fitted effect of over 65% in size.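 On activity change, negative = inhibition: plate controls were DMSO wells for no effect and tomatine positive control wells for full effect.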
Conditions: SKOV3ip1-GFP adhesion/invasion on 3D omental model, fluorescence; series mostly up to 45.8 µM; activity change, negative = inhibition: at the top concentration
Summary of the method: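 Primary human omental fibroblast/mesothelial 3D culture pre-formed 48 h. SKOV3ip1-GFP cells added with compounds (0.36-46 umol/L), incubated 2 h RT/16 h 37 C, fixed; GFP cells quantified at 488/509 nm.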

outcome, inactive:
CCCCN(CC)CCNC(=O)c1cc2c(=O)oc3ccc(C)cc3c2s1
O=C(NCc1cccc(F)c1)c1ccc(-n2cnc3cccnc32)cc1
Cc1cccc(C)c1OCC(=O)Nc1nc(-c2ccc(Br)cc2)ns1
COc1cccc(N2CCN(C(=O)c3cnn(C(C)(C)C)c3C3CCN(C(=O)OC(C)(C)C)CC3)CC2)c1
CCc1ccccc1NC(=O)Cn1c(-c2nonc2N)nc2ccccc21
COc1ccc(-c2onc(C)c2C)cc1S(=O)(=O)N1c2ccccc2CC1C (stereo not given)
Cc1cccc(NC(=O)C2CCN(c3nnc(-n4c(C)ccc4C)s3)CC2)c1C
CCOc1ccc(C(CC(=O)O)N2Cc3ccccc3C2=O)cc1OC (stereo not given)
COc1cccc(N2CCN(S(=O)(=O)c3ccc4[nH]c5c(c4c3)CCCC5)CC2)c1
Cc1cccc(N(C)C(=O)c2cc(S(=O)(=O)N3CCCC3)cn2C)c1
CCOC(=O)c1oc2c(c1C)-c1nn(Cc3ccc(Cl)cc3)cc1CC2
Cc1noc(C)c1S(=O)(=O)N1CCC(C(=O)N2CCN(c3ccccc3)CC2)CC1
O=C(CSc1nc2c([nH]c3ccccc32)c(=O)n1-c1ccc(F)cc1)N1CCCCC1
COc1ccccc1NC(=O)Cn1nnc(C(=O)NCc2ccc3c(c2)OCO3)c1N
CC(C)c1ccc(NC(=O)CN(C)S(=O)(=O)c2ccc3c(c2)c(=O)n(C)c(=O)n3C)cc1
Cc1c(C(=O)N(C)C)sc2c1c(=O)n(-c1ccc(Cl)c(Cl)c1)c(=O)n2CC(=O)Nc1cccc(C(F)(F)F)c1
COc1cccc(N2CCN(C(=O)c3c(C)oc4ncnc(N5CCOCC5)c34)CC2)c1
COc1cccc(Oc2nc3c(c(=O)n(Cc4ccccc4F)c(=O)n3C)n2C)c1
Cc1ccc(NS(=O)(=O)c2cc(Br)cc3c2N(C(=O)C2CC2)CC3)cc1C
CCc1ccccc1N(C)C(=O)Cn1cnc2sc(C)c(S(=O)(=O)N3CCN(c4ncccn4)CC3)c2c1=O
COc1ccc2c(CNCCc3cccs3)c(C(=O)O)n(Cc3ccccc3)c2c1
COc1ccccc1CCNC(=O)C(=O)NCC(c1ccc2c(c1)OCO2)N1CCOCC1 (stereo not given)
COC(=O)c1ccccc1NC(=O)CSc1nc2ccsc2c(=O)n1CCC(C)C

Activity change, negative = inhibition, inactive:
Cc1cccc(Cn2cc(C(=O)Nc3ccc(F)c(C(F)(F)F)c3)ccc2=O)c1 25.7%
Cc1ccc(-n2c(C)nc3c(cnn3-c3ccccc3C)c2=O)cc1F -4.59%
CCc1ccc2oc(-c3ccc(NC(=O)c4ccc(OC)c(Br)c4)cc3)nc2c1 0.621%
Cc1cc(C)c(Cn2c3ccccc3c3cnn(CC(=O)N4CCCCCC4)c(=O)c32)c(C)c1 3.12%
Cc1ccc(-c2cc(C(F)(F)F)n3nc(C(=O)Nc4ccc(Cl)c(C(F)(F)F)c4)cc3n2)cc1 6.41%
Cc1cccc(-n2c(-c3ccccc3)cn3c4c(=O)[nH]c(=O)n(C)c4nc23)c1 7.86%
Cn1cc(S(=O)(=O)c2ccccc2)c(=O)c2cc(F)c(N3CCN(c4ccccc4)CC3)cc21 5.69%
COC(=O)c1cc(C)nc2c1c(=O)nc(SCc1ccccc1F)n2C1CC1 -3.27%
CCOC(=O)CN1C(=O)C(O)(CC(=O)c2cc(OC)ccc2OC)c2ccccc21 (stereo not given) 1.8%
O=S1(=O)c2ccccc2N(Cc2ccccc2)c2ccccc21 -1.97%
CC(=O)c1ccc(NC(=O)c2c3c(nc4ccccc24)C(=O)N(C2CCCCC2)C3)cc1 -7.42%
CCN(CC)CCCNC(=O)C1CCN(S(=O)(=O)CC)CC1 5.21%
CCOc1ccc(C(=O)Nc2c(C(=O)Nc3ccccc3F)oc3ccccc23)cc1OCC -7.11%
O=C(Cn1c(=O)n(-c2cccc(Cl)c2)c(=O)c2sc3ccccc3c21)N1CCCC1 -5.85%
O=C(c1ccc2c(c1)CCN2S(=O)(=O)c1ccccc1)N1CCN(c2ccc(F)cc2)CC1 -0.702%
O=C(Nc1cccc(Br)c1)N1CCC(CN2CCCCC2)CC1 -2.15%
COc1ccc(OCCn2cc(C(=O)C3CCCCC3)c3ccccc32)cc1 3.4%
CC(=O)c1cc2c(cc1NC(=O)c1c(C)nn(-c3ccc(C)cc3)c1-n1cccc1)OCO2 -7.59%
CC1CCN(Cc2c(O)ccc3c(=O)c(-c4cccc(Cl)c4)c(C(F)(F)F)oc23)CC1 0.356%
CCc1cccc(NC(=O)Cn2c(=O)n(Cc3ccccc3)c(=O)c3c2c2cc(OC)ccc2n3C)c1 -3.83%
O=C(NCc1ccc(Cl)cc1)C(=O)Nc1ccc(Br)cc1 -11%
O=S(=O)(Nc1ccc2oc3c(c2c1)CCCC3)c1cc(Cl)ccc1Cl 0.732%
CCN(C(=O)Cn1nc(Cc2cccnc2)c2ccccc2c1=O)c1ccccc1F -5.49%
CC1CCN(C(=O)CSc2nnc(-c3ccccc3Cl)o2)CC1 -3.97%
COc1ccc(NC(=O)/C(C#N)=C/c2ccc(OCc3cc(=O)n4nc(C)sc4n3)cc2)cc1 19.1%
COC(=O)c1c(NC(=O)CCCOc2ccc(C(C)(C)C)cc2)sc2c1CCC(C)C2 (stereo not given) 0.627%
O=C(NCCc1csc(-c2ccc(Cl)cc2)n1)c1cccs1 -5.26%
COc1ccc(C2Sc3ccccc3NC3=C2C(=O)c2ccccc23)c(OC)c1OC (stereo not given) -18%
COc1ccc(NC(=O)CCNS(=O)(=O)c2cccc3nsnc23)cc1 -3.52%
Cc1ccc2nc(-c3cc(NC(=O)c4ccc5c(c4)OCCO5)ccc3Cl)oc2c1 3.35%
COc1ccc(-c2nnc(C3CCN(C(=O)c4ccccc4F)CC3)o2)cc1 -2.23%
Cc1ccc(S(=O)(=O)NCCc2cn3c(C)csc3n2)cc1 3.96%
OCCN1C[C@H](O)[C@@H](O)[C@H](O)[C@@H]1CO -1.21%
COc1ccc(C2c3c(oc4ccc(F)cc4c3=O)C(=O)N2Cc2ccc3c(c2)OCO3)cc1 (stereo not given) 0.325%
Cc1ccc(N2CC(c3nc4ccccc4n3CCC3CCCCC3)CC2=O)cc1 (stereo not given) 0.319%
CCOC(=O)c1cccc(Nc2c3c(nc4ccccc24)CCC3)c1 -16.9%
O=C(NCCS(=O)(=O)N1CCN(c2ccccc2)CC1)C(c1ccccc1)c1ccccc1 -2.81%
O=C1CC(c2ccccc2)Cc2[nH]c(=O)c(C(=O)Nc3cccc(F)c3)cc21 (stereo not given) -19.3%
O=C(Nc1ccccc1Br)C1CCCN(S(=O)(=O)c2cccc3nsnc23)C1 (stereo not given) -7.11%
COC(=O)c1ccccc1NC(=O)NCCc1c(C)nn(C)c1C -0.432%
CCc1ccc(CNCc2c(C(=O)O)n(Cc3cccc(F)c3)c3cc(OC)ccc23)cc1 9.38%
N#C/C(=C\c1ccccc1)c1nc(-c2cc3cc(Br)ccc3oc2=O)cs1 -3.12%
CCc1ccc(OCC(=O)N(Cc2ccc(Cl)cc2)C2CCS(=O)(=O)C2)cc1 (stereo not given) -8.45%
CCC(C)NC(=O)Cn1c(=O)cc(-c2ccccc2)c2c(C)nn(C)c21 (stereo not given) 14.5%
Cn1c(NCCO)nc2c1c(=O)n(Cc1ccccc1Cl)c(=O)n2C 0.741%
CCn1c(=O)n(CC)c2cc(N3CCCCC3)c(NC(=O)Nc3ccccc3Cl)cc21 5.86%
Cc1cccc(NS(=O)(=O)c2ccc3oc(=O)c4ncn(C)c4c3c2)c1C -3.01%
COc1cc2[nH]c(=O)n(CCCCCC(=O)N3CCN(c4cccc(C(F)(F)F)c4)CC3)c(=O)c2cc1OC -8.07%
COc1ccccc1C(=O)Nc1cc2c(cc1N1CCOCC1)n(C)c(=O)n2C 2.46%
Cc1nnc(C(=O)NC(C)(C)c2nc(C(=O)NCc3ccc(F)cc3)c(O)c(=O)n2C)o1 -7.67%
O=C(CCS(=O)(=O)c1cc(Br)cc2c1N(C(=O)C1CC1)CC2)Nc1ccc(Br)cc1F 12.9%
CCOC(=O)Cc1ccc(NC(=O)NCc2ccc3c(c2)CCN3C(=O)CC)cc1 -6.93%
COC(=O)c1ccc(Cn2nnc3sc4c(c3c2=O)CCC(C)C4)cc1 (stereo not given) 10.1%
CCOc1ccccc1CNC(=O)CCn1ccc2cc(S(=O)(=O)N3CCC(C)CC3)ccc21 -12.4%
CCCS(=O)(=O)c1c(Nc2ccccc2C)sc(C(=O)c2ccccc2)c1N 1.46%
COc1ccc(NC(=O)Cn2c(=O)oc3cc(S(=O)(=O)N4CCC(C)CC4)ccc32)c(OC)c1 -2.78%
CCc1ccc2c(c1)NC(c1cccs1)=NC(c1ccc(F)cc1)=N2 -1.28%
Cc1ccc(Cl)cc1NC(=O)C1CCC(CNS(=O)(=O)c2cccc3nsnc23)CC1 (stereo not given) -2.08%
CC(=O)N(Cc1cccnc1)c1nc2c(C)c(C)ccc2s1 9.64%
CCOc1ccc(CCNC(=O)c2cc3c(=O)[nH]c4ccc(C)cc4c3s2)cc1OCC -4.08%
O=C(NC1CCCc2ccccc21)c1ccc2c(c1)sc1nc(-c3ccc(F)cc3)cn12 (stereo not given) -10.2%
O=C(CCCN1C(=O)C(c2ccccc2)Oc2cccnc21)Nc1ccc(Br)cc1F (stereo not given) 100%
CCOC(=O)c1c(NC(C)=O)c2c3c(sc2n1Cc1nc(-c2cccc(Cl)c2)oc1C)CCCC3 1.51%
Cc1c(Cl)cccc1NC(=O)Cn1c(CCC(=O)O)ccc1-c1cccs1 -8.04%
COc1ccccc1OCC(=O)NCC(c1ccc(Cl)cc1)N1CCCCC1 (stereo not given) 8.38%
CCN(C(=O)C1CCN(S(=O)(=O)c2ccc3c(c2)CCCN3C(C)=O)CC1)c1cccc(C)c1 -23.5%
COc1cccc(CNC(=O)C(=O)Nc2c3c(nn2-c2ccccc2)CSC3)c1 -4.49%
CC(C)c1nn(-c2c(Cl)cccc2Cl)c2nc(Cc3ccc(OCCO)cc3)[nH]c(=O)c12 19.7%
Cc1ccc2oc3c(c(=O)c2c1)C(c1ccc(F)cc1)N(Cc1ccc2c(c1)OCO2)C3=O (stereo not given) 3.86%
CCOc1ccc(-c2cccc(NS(=O)(=O)c3c(C)cc(C)cc3C)c2)nn1 -19.1%
CC(=O)c1cccc(NC(=O)c2sc(-n3nc(C)c(Cc4ccc5c(c4)OCO5)c3C)nc2C)c1 -11.4%
CCOc1cc(C(=O)NCCc2csc3nc(-c4ccc(C)cc4)nn23)cc(OCC)c1OCC 3.32%
